From article PMC4336329 (PLoS ONE, 2015) come the findings set out here.

Out of some 310,000 compounds screened, about 2,200 (0.71%) showed an effect of 50% or more. The effect is printed as a negative number. The list shows a part of the results.

human ether-à-go-go-related gene (hERG) potassium channel, sequence (Q12809 whole entry, looked up): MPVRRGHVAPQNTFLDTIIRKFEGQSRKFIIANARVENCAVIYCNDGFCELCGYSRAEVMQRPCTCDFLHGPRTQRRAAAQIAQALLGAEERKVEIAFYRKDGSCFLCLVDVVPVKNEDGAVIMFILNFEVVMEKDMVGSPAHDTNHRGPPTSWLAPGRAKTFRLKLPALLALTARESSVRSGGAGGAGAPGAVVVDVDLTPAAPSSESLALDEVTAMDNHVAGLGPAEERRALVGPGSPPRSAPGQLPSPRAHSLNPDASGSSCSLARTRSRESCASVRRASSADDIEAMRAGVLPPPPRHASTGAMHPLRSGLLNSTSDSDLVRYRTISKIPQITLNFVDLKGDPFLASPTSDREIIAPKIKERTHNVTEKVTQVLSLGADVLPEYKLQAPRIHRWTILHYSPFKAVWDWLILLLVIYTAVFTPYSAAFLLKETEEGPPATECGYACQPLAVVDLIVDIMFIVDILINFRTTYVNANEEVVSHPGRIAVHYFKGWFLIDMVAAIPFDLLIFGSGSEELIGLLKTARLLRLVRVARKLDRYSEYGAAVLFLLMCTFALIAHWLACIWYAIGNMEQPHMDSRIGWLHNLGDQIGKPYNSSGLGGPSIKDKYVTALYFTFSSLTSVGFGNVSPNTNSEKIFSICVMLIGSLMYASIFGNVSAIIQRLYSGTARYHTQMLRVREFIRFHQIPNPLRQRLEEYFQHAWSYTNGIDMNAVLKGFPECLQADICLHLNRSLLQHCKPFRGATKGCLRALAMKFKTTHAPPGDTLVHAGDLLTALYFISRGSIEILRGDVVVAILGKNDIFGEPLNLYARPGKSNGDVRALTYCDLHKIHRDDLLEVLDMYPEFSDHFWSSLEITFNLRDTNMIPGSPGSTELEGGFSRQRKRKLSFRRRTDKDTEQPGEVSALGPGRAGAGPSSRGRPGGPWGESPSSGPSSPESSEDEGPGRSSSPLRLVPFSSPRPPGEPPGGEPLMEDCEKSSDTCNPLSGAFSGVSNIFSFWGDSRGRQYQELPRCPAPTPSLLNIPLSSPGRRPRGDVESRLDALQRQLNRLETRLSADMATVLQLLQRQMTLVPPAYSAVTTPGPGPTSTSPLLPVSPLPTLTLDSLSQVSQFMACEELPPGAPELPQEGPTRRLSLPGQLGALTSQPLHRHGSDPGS

This experiment addresses human ether-à-go-go-related gene (hERG) potassium channel (human, UniProt Q12809). The experiment can be described thus: primary screen, population patch clamp on CHO cells stably expressing hERG.
For the molecule `COc1ccc(NC(=O)CCn2nc(C)cc2C)cc1`, the “hERG current change (%, negative = inhibition) at 1uM” value is on record as 8.97%.
For the molecule `COC(=O)Cn1c(O)c(N=NC(=O)OC)c2ccccc21`, the “hERG current change (%, negative = inhibition) at 1uM” value turned out to be 17.7%.
With `Cc1ccc(NC(=O)c2c(Cl)nc3ccccn23)cc1` the figure was 7.95%; with `O=C(CC1CCCC1)NNC(=O)c1ccc(F)cc1`, 18.1%; with `CCCOc1ccc(C(=O)CCC(=O)OCC(=O)Nc2ccc(Oc3ccccc3)cc2)cc1`, 1.28%.
To `Cc1cnc(C(=O)Nc2nnc(C3CC3)s2)cn1` belongs 7.89%; to `Cc1csc(NC(=O)CSc2nnc(-c3ccoc3C)n2C(C)c2ccccc2)n1` (stereo not drawn), -22.6%; to `Cn1c(=O)c(C(=O)NC2CCCCCCC2)c(O)c2ccccc21`, 9.49%.
In the case of `CCCSc1nc2ccsc2c(=O)n1CC`, the “hERG current change (%, negative = inhibition) at 1uM” value amounted to 3.04%.
Take `COc1ccc2c(C)cc(N3CCOCC3)nc2c1`: the “hERG current change (%, negative = inhibition) at 1uM” value is given as 6.69%.
`Cc1cccc(OCCC(=O)Nc2ccccc2C(N)=O)c1`: the “hERG current change (%, negative = inhibition) at 1uM” value turned out to be 12.3%.
With `CC(=O)Cc1nsc(NC(=O)c2ccc(COc3ccccc3Cl)o2)n1` the figure was 17.4%; with `CCOC(=O)Nc1nnc(/C=C/c2ccc(OC)cc2)s1`, 2.36%.
Consider `Cc1ccc(NC(=O)Nc2sc(=S)n(C)c2C)cc1`, for which the “hERG current change (%, negative = inhibition) at 1uM” value was 5.1%.
With `COc1cccc(CC(=O)NC2CCCN(Cc3ccc(Cl)cc3)C2)c1` (stereo not drawn) the figure was 7.04%; with `Cc1ccc(OCCNC(=O)c2cccc(C)c2)cc1`, 13%; with `CC(=O)c1cn(N(C)c2ncc(C(F)(F)F)cc2Cl)c(=O)[nH]c1=O`, 8.81%.
With `COC(C/C=C/C(=O)[C@H](C)OCc1ccccc1)OC` the figure was 15.6%; with `COc1ccc(-n2nc([N+](=O)[O-])c(=NCc3ccc4c(c3)OCO4)n2O)cc1`, 12.5%; with `CCOC(=O)C1=C(COC(=O)CCOc2ccccc2C)NC(=O)NC1C` (stereo not drawn), 1.11%.
For `COc1ccc(CN2CCN(CCCc3ccccc3)C(CCO)C2)c(O)c1` (stereo not drawn), the “hERG current change (%, negative = inhibition) at 1uM” value is -71.2%.
For `COc1ccc(Cn2c(-c3ccc(OC)cc3)n[nH]c2=S)cc1`, the “hERG current change (%, negative = inhibition) at 1uM” value is reported as 19%.
`CC(C)CNC(=O)COC(=O)c1cc(S(=O)(=O)N(C)C)ccc1N1CCCC1`: the “hERG current change (%, negative = inhibition) at 1uM” value is 4.3%.
`COC(=O)Cn1c(CN2CCOCC2)nc2c1c(=O)[nH]c(=O)n2C`: the “hERG current change (%, negative = inhibition) at 1uM” value is 4.01%.
With `CCN(CC)C(=O)CSC(Nc1cccc(F)c1)=C(C#N)C#N` the figure was 14.1%; with `COc1ccccc1-c1ccc(SCC(=O)NCc2ccc3c(c2)OCO3)nn1`, 7.59%.
For `O=C(NCCC1=CCCCC1)C1CCCN(S(=O)(=O)c2cccnc2)C1` (stereo not drawn), the “hERG current change (%, negative = inhibition) at 1uM” value stood at 1.68%.
With `Cc1cc2c(cc1S(=O)(=O)N1CCN(c3ccccc3)CC1)OCC(=O)N2` the figure was -4.77%; with `CCOCCCNS(=O)(=O)c1ccc(NC(=O)c2ccc(OC)c([N+](=O)[O-])c2)cc1`, 13.1%.
Consider `Nc1nnc(CCN2C(=O)CSC2=O)s1`, for which the “hERG current change (%, negative = inhibition) at 1uM” value is reported as 9.09%.
To `O=C(CCN1CCOCC1)Nc1cc(C(=O)Nc2ccccc2F)ccc1N1CC2CC(C1)c1cccc(=O)n1C2` (stereo not drawn) belongs 13.5%.
With `O=C1NC(=O)N(c2ccc(Cl)cc2)C(=O)/C1=C\c1ccc(Sc2nc3ccccc3[nH]2)o1` the figure was -48.6%.
With `Cc1nnc(SCC(=O)NNC(=O)COc2ccc(Br)cc2)n1C` the figure was 2.23%.
With `O=C(N/N=C/c1cn(-c2ccccc2)nc1-c1cccs1)c1ccncc1`, the “hERG current change (%, negative = inhibition) at 1uM” value is listed as 7.24%.
For the molecule `COc1ccc(OCC(=O)Nc2ccc3c(c2)nc(CCN2CCC(C)CC2)n3C)cc1`, the “hERG current change (%, negative = inhibition) at 1uM” value is on record as -46.3%.
With `O=C(COC(=O)C1CC2C=CC1C2)NCc1ccccc1Cl` (stereo not drawn) the figure was 7.84%.
To `c1ccc(Nc2ccccn2)nc1` belongs 8.47%.
With `O=C(O)c1n[nH]c2ccccc12` the figure was -0.333%; with `COCCN(C(=O)CSc1nnc(-c2cccs2)n1N)c1c(N)n(Cc2ccccc2)c(=O)[nH]c1=O`, -7.85%; with `O=C(CCNS(=O)(=O)c1ccc(Cl)cc1)N1CCCCCC1`, 13%.
`O=S(=O)(c1ccccc1F)N1CCN(CC(O)c2ccccc2)CC1` (stereo not drawn): the “hERG current change (%, negative = inhibition) at 1uM” value is 6.22%.
As for `Cc1cc(C)c(-c2c(O)c3cccc4c3n(c2=O)CCC4)c(C)c1`, the “hERG current change (%, negative = inhibition) at 1uM” value came to 2.36%.
For the molecule `CCN(CC)C(=O)C1=C(C)Nc2nnnn2C1c1cccnc1` (stereo not drawn), the “hERG current change (%, negative = inhibition) at 1uM” value turned out to be 1.65%.
As to `CCN(CC(=O)Nc1ccc(NC(C)=O)cc1)C(=O)CCCSc1nc2ccccc2[nH]1`, the “hERG current change (%, negative = inhibition) at 1uM” value is given as -4.05%.
With `CCC(CC)NC(=O)COC(=O)CCC(=O)c1ccc(Cl)cc1` the figure was 4.14%.
